The list shows a part of the results.

The assay deals with S. aureus RN4220. Nature of the assay: growth inhibition call (relative growth <= 0.2). To be noted: 50 µM.
As for `COc1ccc(OC(=O)N(C)C[C@H]2OCc3ccccc3-c3c(n(C)c4ccccc34)C(=O)N([C@@H](C)CO)C[C@@H]2C)cc1`, the growth inhibition call is “inactive”.
As for `NC(Cc1ccc(N(CCCl)CCCl)cc1)C(=O)O` (centres undefined), the entry is “inactive”.
As for `CCN1C[C@]2(OC(=O)c3ccccc3NC(C)=O)CC[C@H](OC)[C@@]34[C@@H]2C[C@@H]([C@@H]13)[C@@]1(O)C[C@H](OC)[C@H]2C[C@@H]4[C@]1(O)[C@H]2OC`, the growth inhibition call was “inactive”.
For the compound `CN(C)NC(=O)CCC(=O)O`, the growth inhibition call was “inactive”.
The entry for `CC(=O)NC1CCSC1=O` (centres undefined) is “inactive”; for `C[C@H]1CN([C@@H](C)CO)C(=O)c2c(c3ccccc3n2C)-c2ccccc2CO[C@H]1CN(C)C(=O)Oc1ccccc1` it is “inactive”; for `O=C(CCCN1CCC2(CC1)C(=O)N(Cc1cccc(F)c1)CN2c1ccccc1)c1ccc(F)cc1` it is “inactive”.
Turning to `CC1(C)S[C@@H]2[C@H](N)C(=O)N2[C@H]1C(=O)O`, the growth inhibition call was “inactive”.
For the compound `COC(=O)[C@@H]1C(=O)NC[C@H]1C(C)C`, the growth inhibition call was “inactive”.
As for `COc1ccc(C2(CN)CCCC2)cc1`, the growth inhibition call is “inactive”.
For `NC1Cc2ccccc2C1`, the growth inhibition call is “inactive”.
As for `CSC1=NN1c1cc(C)nc(N)n1`, the growth inhibition call was “inactive”.
For `C[C@H]1C[C@@H](O)[C@]2(O)[C@@]13CC(=O)OC[C@@]2(C)[C@](C)(O)C(=O)C3`, the growth inhibition call is “inactive”.
For `Cc1nc[nH]c1CCN`, the growth inhibition call was “inactive”.
With `Fc1ccc(Oc2ccnc3cc(Cl)cc(Cl)c23)cc1`, the growth inhibition call is “inactive”.
`NC1(c2ccc(Cl)cc2)CC1`: the growth inhibition call was “inactive”.
For the compound `CN(C)C(=O)Oc1cccc([N+](C)(C)C)c1.[Br-]`, the growth inhibition call was “inactive”.
As to `Br.CC(Cc1ccc(O)cc1)NCC(O)c1cc(O)cc(O)c1` (centres undefined), the growth inhibition call was “inactive”.
With `COc1cc2c(cc1O)CC1c3c(cc(O)c(OC)c3-2)CCN1C` (centres undefined), the growth inhibition call was “inactive”.
On to `Oc1cc(Cl)ccc1Oc1ccc(Cl)cc1Cl`, for which the growth inhibition call was “inactive”.
Turning to `C=CC1CN2CCC1CC2C(O)c1ccnc2ccccc12` (centres undefined), the growth inhibition call is “inactive”.
As for `C[C@@H](N)Cc1cnc[nH]1`, the entry is “inactive”; as for `CNC(=O)[C@@H]1COC[C@@H]2CN(CC(C)C)C[C@@H]21`, “inactive”.
On to `Cc1nnc(N2CCC[C@]3(CNCCO3)C2)o1`, for which the growth inhibition call was “inactive”.
For `Cc1noc(C)c1C(=O)N1C[C@@H]2CCN[C@@H]2C1`, the growth inhibition call was “inactive”.
As for `CNC(=O)[C@H]1Cn2ccnc2C2(CCNCC2)O1`, the growth inhibition call is “inactive”.
Turning to `OC[C@@H]1[C@@H](O)[C@H](O)[C@H]2[C@@H](O)CCN21`, the growth inhibition call was “inactive”.
As for `Cn1ccnc1C(=O)N[C@H]1CN[C@@H]2CCCO[C@@H]12`, the growth inhibition call was “inactive”.
On to `CCCC[C@@H](C)[C@@H](OC(=O)C[C@@H](CC(=O)O)C(=O)O)[C@H](C[C@@H](C)C[C@H](O)CCCC[C@@H](O)C[C@H](O)[C@H](C)N)OC(=O)C[C@@H](CC(=O)O)C(=O)O`, for which the growth inhibition call was “inactive”.
As for `C1C[C@@H]2C[C@@H]2N1`, the growth inhibition call is “inactive”.
As for `Cc1cc(O)c2c(=O)c3c(O)cc(O)c4c5c(O)cc(O)c6c(=O)c7c(O)cc(C)c8c1c2c(c34)c(c78)c65`, the entry is “inactive”.
Regarding `CCN1C[C@]2(C)CC[C@H](O)[C@@]34[C@@H]5C[C@H]6[C@H](O)[C@@H]5[C@](O)(C[C@@H]6OC)[C@](O)([C@@H](OC)[C@H]23)[C@@H]14`, the growth inhibition call is “inactive”.
Regarding `C[C@H]1[C@H](O)[C@@H](C)/C=C\C=C/CC\C=C/C=C\C=C/C=C\[C@@H](O[C@@H]2O[C@H](C)[C@@H](O)[C@H](N)[C@@H]2O)C[C@H]2O[C@@](O)(C[C@@H](O)[C@@H]2C(=O)O)C[C@@H](O)[C@@H](O)CC[C@@H](O)C[C@@H](O)C[C@@H](O)CC(=O)O[C@H]1C`, the growth inhibition call is “inactive”.
On to `COC(=O)NC(=S)Nc1ccccc1NC(=S)NC(=O)OC`, for which the growth inhibition call was “inactive”.
In the case of `C[C@H]1CN([C@@H](C)CO)C(=O)CCCn2nncc2CO[C@@H]1CN(C)C(=O)Oc1cccc2ccccc12`, the growth inhibition call was “inactive”.
With `COCCC(=O)N1C[C@H]2CCN[C@H]2C1`, the growth inhibition call is “inactive”.
In the case of `CC(=O)Oc1ccc(Cl)c2cccnc12`, the growth inhibition call was “inactive”.
In the case of `CCC(=O)CCCCC[C@@H]1NC(=O)[C@H]2CCCCN2C(=O)[C@H]([C@@H](C)CC)NC(=O)[C@H](Cc2cn(OC)c3ccccc23)NC1=O`, the growth inhibition call was “inactive”.
As for `CCN1C(=O)/C(=C/c2ccc[nH]2)C(=O)NC1=S`, the growth inhibition call was “inactive”.

For the origin of these results see the antibiotic and cytotoxicity screens of Wong et al. (2023).
